# Hit rate of the full screen: of about 360,000 compounds, about 17,000 (4.7%) were called active. Inconclusive results, whose numbers are uncertain, are shown with a selection of clear calls. Rule as the data show it: active = activity change below about -50%; inconclusive = mostly about -30% to -49%; inactive = weaker than that.
# Assay: qHTS for Inhibitors of Inflammasome Signaling: IL-1-beta AlphaLISA Primary Screen
# Conditions: THP-1 LPS/ATP IL-1B secretion, 16 h, at 57.5 µM, stronger effect = lower value
# Procedure, shortened: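 Secreted IL-1B measured by AlphaLISA bead assay after 16 h compound exposure of THP-1 cells; compounds (final up to 57.5 uM) added 1 h before LPS (250 ng/mL) and ATP (1.25 mM) stimulation; lower signal means less secretion.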
# % is scaled to controls: 0 for no effect and ±100 for the full control effect.
row,SMILES,activity change
1,O=C(CCCOc1ccc(Cl)cc1Cl)N1CCC2(CC1)OCCO2,inconclusive: -31.5%
2,CN(CC1COc2ccccc2O1)c1nc(-c2cccnc2)nc2ccccc12 (stereo not given),inconclusive: -44.4%
3,C[N+]12CCC(CC1)C(C(O)(c1cccc(Cl)c1)c1cccc(Cl)c1)C2 (stereo not given),inconclusive: -39.3%
4,CC(C)NCC(O)c1ccc(C2CCCC2)cc1 (stereo not given),inconclusive: -38.1%
5,NC(=O)Cn1cc(C(=O)c2ccccc2)c2ccccc21,inactive: 2.39%
6,CCCCN1C(=O)/C(=C/c2ccc(N(C)C)cc2)C(=O)N(Cc2ccco2)C1=O,inconclusive: -35.9%
7,COC(=O)C1=C(c2ccc(OC(F)(F)F)cc2)C[C@@H]2CC[C@H]1N2C(=O)NCCOc1ccccc1,inconclusive: -47.3%
8,CCCC(CCC)C(=O)OC[N+](C)(C)CCOC(=O)C(O)(c1ccccc1)C1CCCC1 (stereo not given),inconclusive: -38.3%
9,O=C1Nc2ccccc2Oc2ccccc21,inconclusive: -31.3%
10,CC(=O)OC1CCC2(C)C(CCC3C2CC(=O)C2(C)C3CC(N3CC3)C2C(C)=O)C1 (stereo not given),active: -72.1%
11,CC[N+]12CCC(CC1)C(C(O)(c1ccccc1)c1ccccc1)C2 (stereo not given),inconclusive: -35%
12,Cn1c(O)c(Cc2ccc(OCc3ccccc3)cc2)c(=O)n(C)c1=O,inactive: 7.13%
13,C[N+]1(C)[C@@H]2CC[C@H]1CC(OC(=O)C(c1ccccc1)c1ccccc1)C2 (stereo not given in full),inactive: 2.06%
14,CN(C)c1ccc(/C=C2\CC3C4CC=C5CC(O)CCC5(C)C4CCC3(C)C2=O)cc1 (stereo not given),inactive: 0.523%
15,Fc1ccc(CCNCc2cccc(Cl)c2)cc1,inconclusive: -46.3%
16,CC1CCOC(=O)C=CC=CC(=O)OC2CC3OC4C5OC5(C)C(O)CC4(COC(=O)C1O)C2(C)C31CO1 (stereo not given),active: -104%
17,CN(C)C1(CNC(=O)Nc2ccc(Cl)c(Cl)c2)CCCCC1,active: -72.4%
18,CC(C)CCNC(=O)c1c(N)n(CC2CCCO2)c2nc3ccccc3nc12 (stereo not given),inconclusive: -44.7%
19,C/C(=N\N1CCCCCC1)c1c(O)n(-c2ccccc2C)c(=O)[nH]c1=O,inactive: 4.39%
20,COc1ccc(Cn2c(N)c(C(=O)NCc3ccco3)c3nc4ccccc4nc32)cc1,inconclusive: -30.1%
21,OCC1OC(n2cnc3cc(Cl)c(Cl)cc32)C(O)C1O (stereo not given),inconclusive: -41.2%
22,COc1cc(C)c(-c2nc(CN3C[C@@H]4C[C@@H](C3)c3cccc(=O)n3C4)c(C)o2)cc1C,active: -115%

row,SMILES,activity change
1,CCn1c(O)c(N=Nc2ccc(S(=O)(=O)N3CCOCC3)cc2)c(=O)n(CC)c1=S,active: -83.9%
2,Clc1ccc(CNCCc2ccc3c(c2)OCO3)cc1,active: -84.2%
3,COc1cc(Cn2c(N)c(C(=O)NCc3ccco3)c3nc4ccccc4nc32)cc(OC)c1OC,inconclusive: -46.2%
4,COC(=O)C1=C(c2cc3ccccc3s2)C[C@@H]2CC[C@H]1N2C(=O)N1CCCC1,inactive: 0%
5,CC(C)(C)OC(=O)c1c(N)n(Cc2ccco2)c2nc3ccccc3nc12,inconclusive: -34.7%
6,COC(=O)C1=C(c2ccc(F)cc2F)C[C@@H]2CC[C@H]1N2C(=O)NCCOc1ccccc1,inactive: -11.1%
7,COc1ccc(C(=O)N2CCCC2=O)cc1,inactive: 6.48%
8,CSc1ccc(CN2CCN(C(=O)COc3cccc(C)c3)CC2)cc1,inconclusive: -35.3%
9,COc1ccc2c(c1)c(C(=O)CN1CCC3(CC1)OCCO3)c(C)n2Cc1ccccc1,inactive: -7.72%
10,COC(=O)C1=C(c2ccc(-c3ccccc3)c(F)c2)C[C@@H]2CC[C@H]1N2C(=O)NCCOc1ccccc1Cl,inconclusive: -43.3%
11,CCN1C(=O)/C(=C/c2ccc(N(CC)CC)cc2OC)C(=O)NC1=S,active: -55%
12,O=C1NC(=O)C(=Cc2ccc(Sc3ccccc3)o2)C(=O)N1,active: -99.6%
13,CCOC(=O)[C@]12Cc3cc(Cl)ccc3[C@H]1N(Cc1ccccc1)C(=O)c1cc(OC)ccc12,active: -113%
14,Cc1ccc(S(=O)(=O)N2CCCCC2)cc1NC(=O)CN1CC=C(c2ccccc2)CC1,inconclusive: -38.8%
15,CCN(CC)c1ccc(/C=C2\C(=O)NC(=O)N(Cc3ccco3)C2=O)cc1,inconclusive: -43.3%
16,COc1ccc(/C=C2/C(=O)NC(=O)N(c3ccccc3)C2=O)cc1CN1C(=O)c2ccccc2C1=O,inactive: 23.4%
17,COC(=O)C1=C(c2cccc(OCc3ccccc3)c2)C[C@@H]2CC[C@H]1N2C(=O)NCc1cccc(OC)c1,inconclusive: -45.3%
18,Cc1ccc(N2C(=O)NC(=O)/C(=C\C=C\c3ccco3)C2=O)cc1C,active: -105%
19,O=C1NC(=S)NC(=O)C1=Cc1cccc2cc3ccccc3cc12,active: -99.2%
20,Cc1ccc(OP(=O)(NCc2ccccc2)Oc2ccc(C)cc2)cc1,inconclusive: -35.5%
21,CN(C)Cc1c[nH]c2cc([N+](=O)[O-])ccc12,inactive: -6.19%
22,Cc1cc(C)cc(N2C(=O)NC(=O)/C(=C\c3cccn3-c3ccccc3)C2=O)c1,active: -98.5%

row,SMILES,activity change
1,Cc1nn(Cc2ccccc2Cl)c(Cl)c1C(=O)O,inactive: 18.3%
2,Oc1ccccc1-[n+]1c(-c2ccccc2)cc(-c2ccccc2)cc1-c1ccccc1,inconclusive: -49.2%
3,O=C1NC(=O)N(c2ccccc2)C(=O)/C1=C/c1ccc(Sc2ccccc2)o1,active: -101%
4,CC(C)c1ccc(-n2c(O)c(C=NCCN3CCNCC3)c(=O)[nH]c2=S)cc1,inactive: -6%
5,CC(CC(C)(C)N1CC1)=NO,inactive: -20.2%
6,CN1CCN(c2ccc(N)cc2Cl)CC1,inconclusive: -45.7%
7,O=C(NP(=O)(N1CC1)N1CC1)c1cc(I)ccc1I,inactive: 24.3%
8,CCOc1cc2c(cc1OCC)-n1cccc1C(c1ccc(F)c(OC)c1)NC2 (stereo not given),inconclusive: -47.1%
9,Cc1oc(-c2ccccc2F)nc1CS(=O)CC(=O)N1CCC2(CC1)OCCO2 (stereo not given),inconclusive: -34.4%
10,Oc1cc(Cl)c(Cl)c(Cl)c1Cl,inconclusive: -41.4%
11,C=CCC1(Nc2ccccc2)CC(C)N(C)CC1C (stereo not given),inconclusive: -41.5%
12,O=C(C[N+]12CCC(CC1)C(C(O)(c1ccccc1)c1ccccc1)C2)c1ccc(Br)cc1 (stereo not given),active: -59.2%
13,Cc1cc(OCC(=O)NCc2ccncc2)c2c3c(c(=O)oc2c1)CCC3,inconclusive: -32%
14,C=CCN1C(=O)NC(=O)/C(=C/C=C/c2ccccc2)C1=O,inconclusive: -42.2%
15,CCOC(=O)c1c(-n2c(C)cc(C=C3C(=O)NC(=S)NC3=O)c2C)sc2c1CCCC2,active: -110%
16,Cc1cc(C(=O)NP(=O)(N2CCOCC2)N2CCOCC2)c(C)n1C1CC1,inactive: 13.4%
17,CC(C)Nc1ccc(Nc2ccccc2)cc1,active: -94.7%
18,COC(=O)C1=C(c2ccc(F)cc2OCc2ccccc2)C[C@@H]2CC[C@H]1N2C(=O)NC1CCN(Cc2ccccc2)CC1,inconclusive: -48.5%
19,COc1ccc(CCNCc2ccccc2F)cc1,inconclusive: -38.8%
20,CCN[C@@H](C)Cc1cccc(C(F)(F)F)c1,inactive: 12.4%
21,Cc1cccc(CN2CCN(Cc3ccc(Cl)cc3)CC2)c1,inconclusive: -47.1%
22,CCN(CC)c1ccc(CNCCc2ccc(F)cc2)cc1,active: -97%

row,SMILES,activity change
1,CCC(=O)N1N=C(c2c(O)n(CCc3ccccc3)c(=O)[nH]c2=O)CC1c1ccc(OC)c(OC)c1 (stereo not given),inactive: 99.1%
2,O=c1c2ccccc2nc(/C=C/c2ccco2)n1-c1ccccc1O,inconclusive: -35.9%
3,Clc1ccc(CCNCc2ccncc2)c(Cl)c1,inconclusive: -32%
4,CC(=O)OC1CC(OC2C(O)CC(OC3C(O)CC(OC4CCC5(C)C(CCC6C5CCC5(C)C(C7=CC(=O)OC7)CCC65O)C4)OC3C)OC2C)OC(C)C1OC1OC(CO)C(O)C(O)C1O (stereo not given),active: -71.1%
5,O=C1CN=C(c2cccc(Br)c2)c2cc(Br)ccc2N1,inconclusive: -46.3%
6,COc1ccc2[nH]c3c(c2c1)CCN=C3C,inactive: -3.28%
7,CCOc1cc(CNC(C)C(O)c2ccccc2)cc(Cl)c1OCC (stereo not given),inconclusive: -45.2%
8,CCCCNC(=O)c1c(N)n(CCCOC)c2nc3ccccc3nc12,inconclusive: -47.6%
9,COC(=O)C1=C(c2ccc(F)cc2OCc2ccccc2)C[C@@H]2CC[C@H]1N2C(=O)NCc1cccc(OC)c1,inconclusive: -43.6%
10,CN1CCN(C(=S)SCC(=O)Nc2ccc(Cl)cc2C(=O)c2ccccc2)CC1,active: -88%
11,Cc1ccccc1C(O)(Cc1ccccc1)C1CN2CCC1CC2 (stereo not given),inconclusive: -45.7%
12,Cc1ccccc1CCNCc1ccc(Br)cc1,active: -64.6%
13,C/C1=C\[C@@H](C)C/C=C/[C@H]2[C@@H]3O[C@]3(C)[C@@H](C)[C@H]3[C@H](Cc4c[nH]c5ccccc45)NC(=O)[C@]32C(=O)/C=C/C(=O)[C@@H]1O,active: -105%
14,CSCCC(c1nnnn1-c1ccc2c(c1)OCCO2)N1CCC(n2c(=O)[nH]c3ccccc32)CC1 (stereo not given),inconclusive: -38%
15,CCOc1cc2c(cc1OCC)-n1cccc1C(c1ccc(OC)c(OC)c1)NC2 (stereo not given),inconclusive: -42.1%
16,Fc1ccc(CCNCc2ccc(Br)cc2)cc1,active: -68%
17,CNC(=O)O/N=C(\N)Cc1csc2ccccc12,inconclusive: -46.1%
18,O=C(c1ccc2c3c(cccc13)CC2)C1CCCN(Cc2ncc[nH]2)C1 (stereo not given),inconclusive: -32.9%
19,CC[C@H]1CC2CN3CCc4c([nH]c5cc(OC)ccc45)[C@](C(=O)OC)(C2)[C@H]13,inactive: 3.53%

# Source: PubChem BioAssay AID743279 (National Center for Advancing Translational Sciences (NCATS), 2014)
